From PubChem BioAssay AID894 (National Center for Advancing Translational Sciences (NCATS), 2007)
Where “and” joins values, the source holds several entries; their conditions need not be identical. Equal entries are not always repeated. About 6,500 (4.3%) of roughly 150,000 compounds were called active. Inconclusive results, whose numbers are uncertain, are shown with a selection of clear calls. Calls follow the shape of the dose curve; as a rule, active = well fitted inhibition curve with a large enough effect (not every such curve was filed as active); inconclusive = small, poorly fitted or top-dose-only effect, or another doubt; inactive = no such curve, though single readings can be large or run the other way. Potencies beside an inconclusive call are fits to weak or partial responses and may not hold up.

molecular target: 15-hydroxyprostaglandin dehydrogenase [NAD(+)] (Homo sapiens) (UniProt P15428); test: qHTS Assay for Inhibitors of HPGD (15-Hydroxyprostaglandin Dehydrogenase); details: purified HPGD, NADH fluorescence kinetic, PGE2 substrate; activity change, negative = inhibition: stronger effect = lower value
UniProt P15428, sequence (P15428 whole entry, looked up): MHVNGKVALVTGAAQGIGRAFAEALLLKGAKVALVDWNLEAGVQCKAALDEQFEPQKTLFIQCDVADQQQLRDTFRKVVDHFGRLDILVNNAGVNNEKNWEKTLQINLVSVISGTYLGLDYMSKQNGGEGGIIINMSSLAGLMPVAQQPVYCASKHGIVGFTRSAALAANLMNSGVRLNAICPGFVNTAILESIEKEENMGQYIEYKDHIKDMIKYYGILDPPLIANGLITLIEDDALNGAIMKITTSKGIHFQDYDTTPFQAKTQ
Summary of the method: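 20 nM HPGD preincubated 15 min at room temperature with compound in 50 mM Tris-HCl pH 8, 0.01% Tween 20. Started with 1 mM NAD+ and 30 uM prostaglandin E2; NADH fluorescence (360/450 nm) read 5 times over 30-s intervals, last minus first.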
% is scaled to controls: 0 for no effect and ±100 for the full control effect; potency is read from the fitted curve at half-maximal effect; tags tell the direction and shape of the fitted curve.

Row | SMILES | Potency | activity change, negative = inhibition
1 | Cc1cc(Cl)ccc1Nc1ncccc1C(N)=O | inconclusive: 31.6 µM [inhibitor, partial curve] | 
2 | O=C(c1ccc(N2C(=O)C3C4c5ccccc5C(c5ccccc54)C3C2=O)cc1)N1CCOCC1 (centres undefined) | inconclusive: 22.4 µM [inhibitor, partial curve] | 
3 | CCCc1cc(C(N)=O)c(NC(=O)C2CCCO2)s1 (centres undefined) | inconclusive: 25.1 µM [inhibitor, single point] | 
4 | O=c1c2c3c(sc2n2cnnc2n1-c1ccccc1)N(Cc1ccccc1)CCC3 | inconclusive: 39.8 µM [inhibitor, single point] | 
5 | O=C(O)c1ccc(NS(=O)(=O)c2cc(Cl)ccc2Cl)cc1O | inconclusive: 39.8 µM [inhibitor, single point] | 
6 | O=c1c(-c2cccs2)nc2cnc(Oc3ccccc3)nc2n1C1CC1 | inconclusive: 28.2 µM [inhibitor, partial curve] | 
7 | O=C(O)C1C2C=CC(O2)C1C(=O)Nc1ccc(S(=O)(=O)Nc2ccccc2)cc1 (centres undefined) | inconclusive: 35.5 µM [inhibitor, single point] | 
8 | COc1ccc(C(=O)N2CCC[C@@]3(CCN(c4ccccc4)C3)C2)cc1 | active: 14.1 µM | 
9 | O=C1OCCN1C(=O)[C@H]1[C@H](c2ccc(Cl)cc2)C(c2cccc(Cl)c2)=NN1c1ccccc1 | inconclusive: 35.5 µM [inhibitor, partial curve] and inconclusive: 31.6 µM [inhibitor, partial curve] | 
10 | Cn1cccc1C(=O)N1CCC2(CC1)CN(c1cccc(-c3ccccc3)c1)C2 | inconclusive: 35.5 µM [inhibitor, partial curve] | 
11 | Cc1ccc2c(CC(=O)Nc3sccc3C(N)=O)coc2c1 | inconclusive: 31.6 µM [inhibitor, single point] | 
12 | COc1ccc2ccccc2c1CN1CCN(C(=O)c2ccccc2)CC1 | inconclusive: 28.2 µM [inhibitor, single point] | 
13 | CCOC(=O)N1CCN(C(=O)CN(c2cccc(C)c2)S(=O)(=O)c2ccccc2)CC1 |  | inactive: 0.782%
14 | CC1(C)Cc2c(sc3nnn(Cc4ccccc4)c(=O)c23)CO1 | active: 31.6 µM | 
15 | Cc1ccc(S(=O)(=O)C(C#N)c2nc3ccccc3nc2N2CCC(C)CC2)cc1 (centres undefined) | inconclusive: 31.6 µM [inhibitor, partial curve] | 
16 | CCOC(=O)c1cnn2c(C)cc(-c3ccc(F)cc3)nc12 | inconclusive: 28.2 µM [inhibitor, partial curve] | 
17 | O=C(CCCNS(=O)(=O)c1ccccc1)NCc1ccco1 |  | inactive: -3.69%
18 | CN(c1ccccc1)S(=O)(=O)c1cc(C(=O)Nc2nc3ccccc3[nH]2)ccc1Cl | inconclusive: 31.6 µM [inhibitor, single point] | 
19 | O=C1CC(C(=O)Nc2ccc(O)c(C(=O)O)c2)C(c2ccccc2)O1 (centres undefined) | inconclusive: 31.6 µM [inhibitor, partial curve] | 
20 | Cc1ccc(N2CCN(c3ccc(NCc4nc5ccccc5n4C)cc3)CC2)cc1 | inconclusive: 22.4 µM [inhibitor, partial curve] | 
21 | COC(=O)C1=C(C)N(Cc2ccccc2)C(=O)N[C@H]1c1ccccc1 |  | inactive: -7.29% and inactive: -1.76%
22 | CC(=O)NC(C)C12CC3CC(CC(C(=O)O)(C3)C1)C2 (centres undefined) |  | inactive: 0.396%
23 | COc1ccc(/C=N/n2cncn2)cc1COc1ccc(NC(C)=O)cc1 | inconclusive: 15.8 µM [inhibitor, partial curve] | 

Row | SMILES | Potency | activity change, negative = inhibition
24 | COc1cccc(C(=O)N=c2sc3c(C)ccc(OC)c3n2C)c1 | inconclusive: 28.2 µM [inhibitor, partial curve] | 
25 | Cc1cc2c(N=O)c(NO)ccc2[nH]1 |  | inactive: -7.66%
26 | CCOc1nc(-c2ccccc2)ccc1-c1noc(-c2ccco2)n1 | inconclusive: 39.8 µM [inhibitor, single point] | 
27 | O=C(COc1ccccc1)NC(=S)Nc1cccc([N+](=O)[O-])c1 | active: 28.2 µM | 
28 | CCC1(C)Cc2ccccc2-c2nc(NCCO)[nH]c(=O)c21 (centres undefined) | inconclusive: 11.2 µM [inhibitor, partial curve] | 
29 | Cc1ccc(CCC(=O)Nc2nccs2)o1 | active: 28.2 µM | 
30 | O=C(NCCc1ccccc1)c1nc2nc(-c3cccs3)cc(C(F)(F)F)n2n1 | inconclusive: 15.8 µM [inhibitor, partial curve] | 
31 | Oc1ccccc1C(=S)N1CCCCC1 | active: 14.1 µM | 
32 | CCOC(=O)Nc1ccc2ncn(C)c(=O)c2c1 | inconclusive: 22.4 µM [inhibitor, partial curve] | 
33 | CC(C)CCn1c(Oc2ccccc2Cl)nc2c1c(=O)n(C)c(=O)n2C |  | inactive: -6.44%
34 | CC(C)C(c1nnnn1Cc1ccccc1)N1CCN(Cc2ccco2)CC1 (centres undefined) |  | inactive: -2.7%
35 | CCOC(=O)c1[nH]c(C)c(C(=O)OCC(=O)N2CC(=O)Nc3ccccc32)c1C | active: 15.8 µM | 
36 | Cc1ccc(OCCSc2nc(NC(C)C)nc(NC(C)C)n2)cc1 |  | inactive: -8.01%
37 | Cc1ccc(N(CC(=O)Nc2ccc(-c3nc4ccc(C)cc4s3)cc2)S(C)(=O)=O)cc1 | inconclusive: 28.2 µM [inhibitor, partial curve] | 
38 | O=C1Nc2ccc(S(=O)(=O)N3CCOCC3)c3cccc1c23 | inconclusive: 28.2 µM [inhibitor, partial curve] | 
39 | N#Cc1c(N)n(CCNC(=O)c2ccccc2)c2nc3ccccc3nc12 | inconclusive: 28.2 µM [inhibitor, partial curve] | 
40 | O=C(NNC(=O)c1cccnc1)NC12CC3CC(CC(C3)C1)C2 |  | inactive: -4.59%
41 | Cc1cc2ccccc2c(=O)n1CC(=O)NCC(=O)N1CCCC1 | inconclusive: 12.6 µM [inhibitor, partial curve] | 
42 | CCCCn1c(-c2csc3c2CCC(C)C3)n[nH]c1=S (centres undefined) | active: 14.1 µM | 
43 | Cc1ccc(S(=O)(=O)/N=C2/C=C(C3C(=O)CC(C)(C)CC3=O)C(=O)c3ccccc32)cc1 | inconclusive: 28.2 µM [inhibitor, single point] | 
44 | COc1ccc(CNc2ncnc3ccc(-c4ccccc4CN(C)C)cc23)c(OC)c1 | inconclusive: 31.6 µM [inhibitor, partial curve] | 
45 | O=C1c2ccccc2C(O)N1Cc1ccccc1Cl (centres undefined) | active: 12.6 µM | 
46 | CCOC(=O)CC(=O)CSc1ccc2nnc(-c3ccc(F)cc3)n2n1 | inconclusive: 17.8 µM [inhibitor, partial curve] | 

Row | SMILES | Potency | activity change, negative = inhibition
47 | CCC(C)N1C(=O)S/C(=C/c2ccc(Sc3nc4ccccc4[nH]3)o2)C1=O (centres undefined) | inconclusive: 20 µM [inhibitor, partial curve] | 
48 | O=c1sc(N2CCN(c3ccccc3F)CC2)nc2ccsc12 | inconclusive: 28.2 µM [inhibitor, single point] | 
49 | Cc1cc(N=Cc2c(O)ccc3cc(Br)ccc23)no1 | active: 10 µM | 
50 | COc1cc(O)oc1C=Nc1ccc(Cl)cc1Cl | inconclusive: 35.5 µM [inhibitor, partial curve] | 
51 | COC(=O)CN1C(=S)N(c2ccc(Cl)cc2)C(=O)C1CC(=O)Nc1ccc(Cl)cc1 (centres undefined) | active: 31.6 µM | 
52 | CC1CCCCC1NC(=O)COC(=O)c1ccc2c(c1Cl)C(=O)c1ccccc1C2=O (centres undefined) | active: 15.8 µM | 
53 | Cc1ccc(S(=O)(=O)c2c(N)n(NC(=O)C3CC3)c3nc4ccccc4nc23)cc1 | inconclusive: 28.2 µM [inhibitor, partial curve] | 
54 | Cc1ccc(O)c(-c2cc(C(=O)NCc3ccccc3)[nH]n2)c1 | inconclusive: 2.24 µM [inhibitor, partial curve] | 
55 | Cn1c(-c2ccc[nH]c2=O)nc2cc(Cl)ccc21 | inconclusive: 10 µM [inhibitor, partial curve] | 
56 | COC(=O)c1ccc(C(NC(=O)OCc2ccccc2)/C(=C/[C@@H](C)C(=O)NCc2ccc(OC)c(O)c2)c2cccnc2)cc1 (some centres undefined) |  | inactive: -16.6%
57 | CCOc1ccc2cc(C#N)c(SCC(=O)N3CCOCC3)nc2c1 | inconclusive: 25.1 µM [inhibitor, partial curve] | 
58 | C=CCc1cccc(C2Nc3ccccc3C(=O)N2O)c1O (centres undefined) | active: 7.08 µM | 
59 | CCOC(=S)N/C(=N\S(=O)(=O)c1ccccc1)c1ccccc1 | inconclusive: 28.2 µM [inhibitor, single point] | 
60 | Cc1nc(S/C(=C/c2ccc(-c3ccc(Cl)cc3)o2)C(=O)O)n[nH]1 | inconclusive: 15.8 µM [inhibitor, partial curve] | 
61 | CC1=NN(C(=O)c2cc(C)nn2C)C(O)(C(F)(F)F)C1 (centres undefined) |  | inactive: -2.54%
62 | O=C1NN(c2ccc(F)c(Cl)c2)C(=O)/C1=C\c1cccc(OC(=O)c2cccs2)c1 | active: 10 µM | 
63 | O=C(CCCCCn1c(=S)[nH]c2ccc(Br)cc2c1=O)NCC1CCCO1 (centres undefined) | active: 2.82 µM | 
64 | CCc1nnc(NC(=O)C2CCCCC2)s1 | inconclusive: 20 µM [inhibitor, partial curve, poor fit] | 
65 | CN1CCN(C2=Cc3ccccc3Sc3cc(F)ccc32)CC1 | inconclusive: 35.5 µM [inhibitor, single point] | 
66 | Cc1cccc(NC(=S)N(Cc2cccs2)Cc2cc3cc(C)cc(C)c3[nH]c2=O)c1 |  | inactive: -16.8%
67 | O=C(NC1CC1)c1cccc(Nc2ccc(-c3ccc4c(c3)OCCO4)nn2)c1 | active: 28.2 µM | 
68 | c1ccc(Cn2nnc3c(N4CCc5ccccc54)ncnc32)cc1 | inconclusive: 28.2 µM [inhibitor, partial curve] | 
69 | CCOC(=O)N1CCN(C(=O)COc2ccc3c(c2)C(=O)CC2(CCN(C(C)=O)CC2)O3)CC1 | inconclusive: 28.2 µM [inhibitor, partial curve] | 
